# Measured values published in PubChem BioAssay AID651582 (Sanford-Burnham Center for Chemical Genomics, 2012).
# Several values for one entry are separate records, joined by “and”; a condition that tells them apart may be missing. Identical values can stand only once. The list shows a part of the results. These are further read-outs of the screen, such as a control signal, another cell line or another target. No call is given for them. The list favours compounds with an active or inconclusive main result.
# Test: inhibitors of triacylglycerol accumulation, primary screen, cell-based, uHTS, fluorescence, H9c2 (AID 651582)
# Details: H9c2 cells, Nile Red lipid (TAG) fluorescence; measured here:; at 12.5 µM; cells loaded with 200 µM oleic acid
row,SMILES,"DAPI nuclei signal change (viability), lower = more cytotoxic"
1,NC(=O)N/N=C/c1c(Sc2nnnn2-c2ccccc2)nc2ccccn2c1=O,-22.3%
2,C=CC[C@@H](CC(=O)N(CCO)Cc1ccccc1)C(=O)N[C@H](COC(=O)[C@@H](CC=C)Cc1ccc(F)cc1)C(C)(C)C,-13.4%
3,O=C(Nc1ccc(-c2csc(Nc3ccccc3)n2)cc1)c1cccc(C(F)(F)F)c1,-6.49%
4,CCN(CC)CCNc1nc2cc(OC)c(OC)cc2c2nc(-c3ccccc3)nn12,39.5%
5,C[C@@H]1CN([C@H](C)CO)C(=O)c2c(c3ccccc3n2C)-c2ccccc2CO[C@H]1CN(C)Cc1ccc(Oc2ccccc2)cc1,-24.3%
6,CCN(CC)CCNc1nc(-n2nc(C)cc2C)nc2sc3c(c12)CC(C)(C)OC3,-16%
7,CC(OC(=O)c1ccc(S(C)(=O)=O)c([N+](=O)[O-])c1)C(=O)NC1C2CC3CC(C2)CC1C3 (configuration not stated),-47.2%
8,O=C(c1ccc(F)cc1F)N1CCCN(c2nc(-c3ccccc3)ns2)CC1,-21.3%
9,CC(=O)O[C@H]1C[C@@]2(C)[C@@H](C[C@@H](O)[C@H]3[C@@]4(C)CC[C@@H](O)[C@@H](C)[C@@H]4CC[C@@]32C)/C1=C(\CCC=C(C)C)C(=O)O,-16.2%
10,COc1ccc(Cl)cc1-c1cc(C(=O)NCC2CCCCC2)[nH]n1,1.33%
11,COc1ccc(-c2cc(C(=O)Nc3cc(OC)cc(C(=O)Nc4cccc(C(F)(F)F)c4)c3)[nH]n2)cc1,-18.3% and -37.8%
12,CN(Cc1ccc(Cl)cc1)C(=O)CCl,-23.8%
13,O=C(CCl)N=c1sccn1Cc1cccc2ccccc12,2.79%
14,CCC(=O)NC(c1ccc(Cl)cc1Cl)c1ccc2cccnc2c1O (configuration not stated),-46.7%
15,O=C(Nc1sc2c(c1-c1nc3ccccc3[nH]1)CCCC2)C1CCCC1,50.4%
16,O=C1Nc2ccc(Br)cc2/C1=N\N=C\C1=C(N2CCOCC2)C(=C/c2ccccc2)/CC1,-2.58%
17,COc1cc(NC(=O)c2nccn2C)cc(C(=O)Nc2cccc(C(F)(F)F)c2)c1,-41.1%
18,COc1cc(/C=C2/SC(=Nc3ccc(O)cc3)NC2=O)ccc1O,-31.1%
19,Cn1nnnc1N=N/C(=N/Nc1ccccc1)c1ccccc1,-19.7%

row,SMILES,"DAPI nuclei signal change (viability), lower = more cytotoxic"
1,COc1ccc2cc3cc(C(=O)NCCc4ccc(OC)c(OC)c4)oc3nc2c1,4.12%
2,N#Cc1cn(-c2ccccc2)nc1-c1ccc2c(c1)OCCO2,-8.24%
3,CC1=C([N+](=O)[O-])C(c2ccccc2)C2=C(N1)c1ccccc1C2=O (configuration not stated),-29.8%
4,CCOC(=O)Nc1ccc2c(c1)C(=NNC(=S)NC)c1ccccc1-2,-41.9%
5,CC(=O)c1ccc(-c2cnc3c(NC=O)cc(-c4ccc(C(=O)NC5CC5)cc4)cn23)cc1,-32.7%
6,CC(C)CCCCCCCCCCCCC(=O)NCC(=O)NC1C(O)C(O)C(Nc2ncnc3nc[nH]c23)OC1C(O)CO (configuration not stated),-45.8%
7,CC1(C)Cc2cccc(OCC(=O)Nc3ccc(OCC(N)=O)cc3)c2O1,-39.4%
8,NC(N)=Nc1ccc(C=C2C=Cc3ccccc32)cc1,-24.4%
9,CC(C)N=C(NS(=O)(=O)c1ccccc1)C(Cl)(Cl)Cl,-28.7%
10,CC(C)Oc1ccc(/C=N/NC(=O)C(CSCc2ccccc2)NC(=O)c2ccc([N+](=O)[O-])cc2)cc1 (configuration not stated),-30.8%
11,C=C(C)COc1ccc(-c2n[nH]c(C)c2-c2ccc(OC)c(OC)c2)c(O)c1,-33.8%
12,Cc1ccc(NC(=S)N(CCCN2CCCC2)Cc2cccn2Cc2ccc(Cl)cc2)cc1Cl,-23.6%
13,CCO[C@@H]1OC(C(=O)N2CCN(Cc3ccccc3)CC2)=C[C@H](c2ccc(C(F)(F)F)cc2)[C@H]1CCCO,-0.993%
14,CCN(CC)CCn1c(SCC(=O)Nc2cccc(OC)c2)nc2c(sc3ccccc32)c1=O,-13.2%
15,CC(C)N(C(=O)[C@H]1C[C@H](CC(=O)NCc2cccc(C(F)(F)F)c2)C(=O)N2CCc3c([nH]c4ccc(Cl)cc34)[C@]12C)C(C)C,-16.5%
16,CC(=O)Nc1ccc(CNc2ncnc3ccc(-c4c(C)noc4C)cc23)cc1,-6%
17,Cc1ccc(Nc2nc(N)nc(-c3oc4ccccc4c3C)n2)cc1,-26.5%
18,C=CCn1c(N)c(C(=O)Nc2ccc(C)c(C)c2)c2nc3ccccc3nc21,-8.07%
19,COc1ccc(N=Nc2ccc(O)c3ncccc23)cc1,-42.2%

row,SMILES,"DAPI nuclei signal change (viability), lower = more cytotoxic"
1,CCOC(=O)c1cc(-c2ccncc2)nc2c1c(C)nn2-c1ccccn1,3.74%
2,O=C(Nc1cccc(NC(=O)c2cccs2)c1)c1ccc([N+](=O)[O-])o1,-32.1%
3,COc1ccc(-n2nc(C(=O)Nc3ccc(OC)c(OC)c3)c3c4ccccc4n(C)c3c2=O)cc1,-36.2%
4,CC(C)(C)OC(=O)N1CCC(CC2CC(c3ccc(Cl)cc3)=NO2)(C(=O)NCC2CCCCC2)CC1 (configuration not stated),-46.5%
5,Cc1ccc(S(=O)(=O)NC(=O)Nc2ccc(N(C)C)cc2)cc1,-21%
6,COc1ccc(C(=O)Nc2ccc(C(=O)Nc3cccc(C)c3)cc2)cc1,-35.9%
7,Clc1cccc(Nc2nc(-c3ccncc3)nc3ccccc23)c1,-20.3%
8,O=C(NC(=S)N(Cc1ccccc1)Cc1ccccc1)C1CCCCC1,-24.8%
9,COc1cc(C#Cc2c(-c3cncn3C)n(C)c3ccc(-c4ccc5[nH]ccc5c4)cc23)cc(OC)c1,-1.09%
10,CCN(CC)c1ccc(-c2nn3c(-c4n[nH]c5c4CCC5)nnc3s2)cc1,9.74%
11,COc1cc(OC)c2c(-c3ccccc3)cc(=O)oc2c1C(CCN1CCCCC1)c1ccc(N(C)C)cc1 (configuration not stated),-38.9%
12,Cc1ccc(CC2(OCCN(C)C)CCC(C(C)(C)C)CC2)cc1 (configuration not stated),-28.5%
13,COc1cc2ccccc2cc1C(=O)Nc1sc2c(c1C(N)=O)CCN(C(C)C)C2,69.2%
14,C#CCN(C[C@@H]1[C@@H](OC(=O)NCC2CCCCC2)[C@@H](OC(=O)NCC2CCCCC2)CN(C(=O)OC(C)C)N1C(=O)OC(C)C)S(=O)(=O)c1ccc(C)cc1,-16.1%
15,CCN1CCN(Cc2ccc(NC(=O)c3ccc(C)c(NC(=O)c4cc(-c5ccc(Br)cc5)n[nH]4)c3)cc2C(F)(F)F)CC1,-5.41%
16,CCOC(=O)/C(=N\Nc1ccc(Cl)cc1)c1csc(Nc2ccccc2)n1,-7.07%
17,Cc1ccsc1-c1nc(C(N)=O)c2[nH]c(=O)n(-c3ccc(Cl)cc3)c2n1,-24.1%
18,CCOc1cc(N2CCOCC2)c(OCC)cc1NC(=O)CC12CC3CC(CC(C3)C1)C2,-13.8%
19,CCOC(=O)c1c(CN2CCNCC2)nc2ccc(Cl)cc2c1-c1ccccc1,-33.1%
